# Data: PubChem BioAssay AID903 (National Center for Advancing Translational Sciences (NCATS), 2007)
# Screen size: about 55,000 compounds; about 340 (0.62%) were called active. Inconclusive results, whose numbers are uncertain, are shown with a selection of clear calls. Calls follow the shape of the dose curve; as a rule, active = well fitted cell-killing curve with a large enough effect; inconclusive = small, poorly fitted or top-dose-only effect; inactive = no such curve, though single readings can be large or run the other way. Where the call is inconclusive, the potency comes from a doubtful curve fit.
# Assay: qHTS Screen for Compounds that Selectively Target Cancer Cells with p53 Mutations: Cytotoxicity of p53 Null Cells at the Permissive Temperature; also: nearly all actives have a fitted effect of over 55% in size;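 as to activity change, negative = cytotoxicity: 0% = DMSO only and -100% = full killing by 100 µM tamoxifen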
# Settings: H1299-neo p53 null cells, ATP luminescence, 24 h, 32C; series mostly up to 46.1 µM
# How it was run: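 Luminescent ATP readout gave cell viability of p53-null H1299-neo cells after a 24 h compound exposure at the permissive 32C. Titrations ran up to 46 uM, and AC50s were fitted with the standard Hill equation.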
# Potency is read from the fitted curve at half-maximal effect; tags tell the direction and shape of the fitted curve.
Structure (SMILES),Potency,"activity change, negative = cytotoxicity"
Cc1cccc(N2CCN(C(=O)C3CCN(S(=O)(=O)c4c(C)noc4C)CC3)CC2)c1C,inactive,
Cc1cc(C)c2oc(-c3ccc(C)c(NC(=O)/C=C/c4ccco4)c3)nc2c1,"inconclusive: 25.1 µM [cytotoxic, single point]",
Clc1ccc(-c2nc3n(n2)Cc2ccccc2-3)cc1,"inconclusive: 0.398 µM [cytotoxic, full curve]",
C#CCSc1nnc(-c2ccc(C)cc2)o1,"inconclusive: 35.5 µM [cytotoxic, single point]",
O=S(=O)(c1ccc(-c2csc(=Nc3ccc(F)cc3)n2CCCCCCO)cc1)N1CCCC1,,inactive: 0.997% [at 9.22 µM]
COc1cccc(-c2oc3ccc(C)cc3c(=O)c2O)c1,"inconclusive: 10 µM [cytotoxic, partial curve]",
CC(C)COc1ccc(C(=O)Nc2nnc(S(=O)(=O)N(C)Cc3ccco3)s2)cc1,"inconclusive: 12.6 µM [cytotoxic, partial curve]",
CCOc1ccc(NC(=O)Nc2cc3c(cc2N2CCCCC2)n(C)c(=O)n3C)cc1,inactive,
C=CCc1cccc2cc(-c3nc4ccc(C(=O)O)cc4[nH]3)c(=O)oc12,"inconclusive: 31.6 µM [cytotoxic, single point]",
CC(CCc1ccccc1)NC(=O)COC(=O)C12CC3CC(CC(Br)(C3)C1)C2 (configuration not stated),"inconclusive: 14.1 µM [cytotoxic, partial curve, poor fit]",
Cc1ccc(-c2nnn3c2nc(NCC(C)c2ccccc2)c2ccccc23)cc1 (configuration not stated),"inconclusive: 35.5 µM [cytotoxic, single point]",
O=C(CN1C(=O)COc2ccc(S(=O)(=O)NC3CCCC3)cc21)Nc1ccc(Cl)cc1,inactive,
O=C(Nc1cccc(O)c1)c1noc2c1CCc1ccccc1-2,active: 5.01 µM,
CCc1ccc(-n2c(=O)c3sc4ccccc4c3n(CC(=O)N3CCCC3)c2=O)cc1,"inconclusive: 35.5 µM [cytotoxic, single point]",
O=C(CSc1nc(-c2cccc(F)c2)[nH]c1-c1ccccc1)Nc1ccc2c(c1)OCCO2,"inconclusive: 12.6 µM [cytotoxic, single point]",
O=C(CSc1nc(Nc2ccc(F)cc2)c2ccccc2n1)c1ccc(F)cc1,"inconclusive: 17.8 µM [cytotoxic, partial curve, poor fit]",
Cc1cccc(-n2ccnc2SCC(=O)Nc2cccc3ccccc23)c1C,"inconclusive: 0.447 µM [cytotoxic, single point]",
Cc1ccccc1C(=O)Nc1c(C)nc(Nc2ccccc2)nc1Nc1ccccc1,"inconclusive: 35.5 µM [cytotoxic, single point]",
O=C(Nc1ccc2nc(SCC(=O)N3CCCC3)sc2c1)c1cccc(Cl)c1,inactive,
CCOC(=O)c1cc2c(=O)n3ccccc3nc2n(Cc2ccco2)c1=NC(=O)c1c(F)cccc1Cl,inactive,
COc1ccc(N2CCN(C(=O)c3cnc(N4CCOCC4)c4ccccc34)CC2)cc1,"inconclusive: 2.82 µM [cytotoxic, full curve]",
CC(C)Cn1c(-c2ccccc2Cl)nc2ccccc21,inactive,
CCOc1ccc(-c2c(C)nn3c(C)c(C(=O)NCCN(C)C)cnc23)cc1OCC,inactive,

Structure (SMILES),Potency,"activity change, negative = cytotoxicity"
CCCCn1c(=N)n(CCCOc2ccc(F)cc2)c2ccccc21,"inconclusive: 35.5 µM [cytotoxic, single point]",
COc1ccc(-c2nc3sc(CCNC(=O)c4ccco4)c(C)n3n2)cc1,"inconclusive: 14.1 µM [cytotoxic, single point]",
CCS(=O)(=O)Nc1ccc(-c2cn3ccsc3n2)cc1,"inconclusive: 12.6 µM [cytotoxic, partial curve]",
CCOC(=O)c1c(C)n(-c2ccccc2)c2ccc(OC(=O)COc3ccc(Cl)cc3)cc12,inactive,
CN(C)c1ccc(N=Cc2nc(-c3ccccc3)oc2OC(=O)c2cccc(Cl)c2)cc1,"inconclusive: 6.31 µM [cytotoxic, full curve, poor fit]",
CCCN(CCC)c1ccc(C2N=C(N)Nc3nc4ccccc4n32)cc1 (configuration not stated),"inconclusive: 31.6 µM [cytotoxic, single point]",
CCN(CC)CCCNC(=O)c1ccc(Cn2c(SCc3ccccc3)nc3cccnc32)cc1,"inconclusive: 17.8 µM [cytotoxic, partial curve]",
COc1c(C)cccc1C(=O)Nc1ccc(-c2nc3ccccc3s2)c(Cl)c1,"inconclusive: 25.1 µM [cytotoxic, single point]",
Cc1ccc(-n2nc3c(n2)/C(=N/O)CC/C3=N\O)cc1,"inconclusive: 11.2 µM [cytotoxic, partial curve]",
COc1cccc(NC(=O)CSc2nnc(-c3cccc(OC)c3)o2)c1,active: 15.8 µM,
CSc1ccc(C2C(C(=O)Nc3ccccc3)=C(C)Nc3nc4ccccc4n32)cc1 (configuration not stated),"inconclusive: 31.6 µM [cytotoxic, single point]",
COCCNc1nc2c(c(=O)n(C)c(=O)n2C)n1Cc1c(F)cccc1Cl,inactive,
O=C(Nc1ccccc1C(F)(F)F)c1ncoc1-c1ccco1,inactive,
O=C(Nc1cccc(F)c1)C1CCCN(S(=O)(=O)c2cccc3cccnc23)C1 (configuration not stated),"inconclusive: 5.62 µM [cytotoxic, single point]",
O=c1c2cc3c(cc2nc2sc(Nc4ccccc4)nn12)OCO3,active: 10 µM,
Cc1c(NC(=O)Nc2ccc(Cl)c(Cl)c2)sc2nc3n(c(=O)c12)CCC(C)CC3 (configuration not stated),"inconclusive: 0.0251 µM [cytotoxic, full curve, poor fit]",
O=C(Nc1nc2n(n1)C(c1ccc(F)cc1)C=C(c1ccc(Cl)cc1)N2)c1ccc([N+](=O)[O-])cc1 (configuration not stated),"inconclusive: 20 µM [cytotoxic, partial curve]",
COc1ccc(CNC(=O)c2ccc3c(c2)nc2n3CCCCC2)cc1,"inconclusive: 10 µM [cytotoxic, partial curve]",
Cc1cccc(C(=O)n2nc(C)c(S(=O)(=O)N3CCOCC3)c2C)c1,"inconclusive: 35.5 µM [cytotoxic, single point]",
CCOC(=O)c1ccc(N2C(=O)c3n[nH]c(-c4ccco4)c3C2c2cccc(O)c2)cc1 (configuration not stated),"inconclusive: 31.6 µM [cytotoxic, single point]",
COc1ccc(Nc2c3c(nc4nncn24)CCC3)cc1OC,inactive,
O=C(CNC(=O)c1cccs1)c1ccc(F)cc1,"inconclusive: 12.6 µM [cytotoxic, partial curve]",
COCC(C)Nc1ncnc2c1cnn2-c1ccc(C)c(C)c1 (configuration not stated),"inconclusive: 12.6 µM [cytotoxic, partial curve]",

Structure (SMILES),Potency,"activity change, negative = cytotoxicity"
COc1ccc(OC)c(S(=O)(=O)NCC(c2cccs2)S(=O)(=O)c2ccc(F)cc2)c1 (configuration not stated),inactive,
O=C(O)c1ccc(Cn2c(SCc3ccc(F)cc3)nc3ccncc32)cc1,"inconclusive: 28.2 µM [cytotoxic, partial curve, poor fit]",
COc1ccccc1CNc1ncnc2c1cnn2-c1ccc(C)cc1,inactive,
Cc1ccc(SCC(=O)Nc2ccc3oc(-c4cccc(Cl)c4)nc3c2)cc1,"inconclusive: 25.1 µM [cytotoxic, single point]",
Cc1ccc(-c2cc(C(=O)Oc3ccc(C#N)cc3)no2)cc1C,"inconclusive: 31.6 µM [cytotoxic, single point]",
Cc1ccccc1CCNC(=O)c1ccc2c(c1)nc1n2CCCCC1,active: 2 µM,
Cn1c2ccccc2c2cnn(CC(=O)Nc3ccccc3F)c(=O)c21,"inconclusive: 35.5 µM [cytotoxic, single point]",
CCc1ccc(OCC(=O)Nc2ncn[nH]2)c(Br)c1,active: 2 µM,
CC(C)Nc1nc2c(-c3cccc(Br)c3)nnn2c2ccccc12,"inconclusive: 35.5 µM [cytotoxic, single point]",
COc1cc(CNCCSc2nnnn2C)ccc1OCc1ccc(Cl)cc1Cl,"inconclusive: 31.6 µM [cytotoxic, single point]",
COc1ccc(-c2noc(CSc3nnc(Cc4ccccc4)n3-c3cccc(C)c3)n2)cc1,"inconclusive: 12.6 µM [cytotoxic, partial curve]",
CCCc1nn2cc(-c3ccc(C)c(C)c3)nc2s1,active: 7.94 µM,
NNc1nc(-c2ccccc2)nc2sc3c(c12)CCCC3,"inconclusive: 5.01 µM [cytotoxic, partial curve]",
COc1ccc(CCNS(=O)(=O)c2ccc(N3CCCCS3(=O)=O)cc2)cc1,"inconclusive: 5.62 µM [cytotoxic, single point]",
CCS(=O)(=O)c1ncc(Cl)c(C(=O)NCc2ccccc2)n1,"inconclusive: 25.1 µM [cytotoxic, single point]",
O=C(Nc1cccc(C(F)(F)F)c1)C1CCN(S(=O)(=O)c2cccs2)CC1,"inconclusive: 5.62 µM [cytotoxic, single point]",
CC(C)c1ccc(NC(=O)c2ccc3c(O)c(S(=O)(=O)c4ccccc4)c(=O)[nH]c3c2)cc1,active: 12.6 µM,
Cn1c(=O)c(=O)n(C)c2cc(S(=O)(=O)N3CCCC3C(=O)Nc3ccc(F)cc3)ccc21 (configuration not stated),"inconclusive: 22.4 µM [cytotoxic, single point]",
O=C(Cn1c(SCC(=O)Nc2ccc(F)cc2)nc2ccccc21)NCc1ccccc1Cl,inactive,
N#Cc1c(C(F)(F)F)cc(-c2cccs2)nc1SCC(=O)Nc1cccc(C(F)(F)F)c1,inactive,
COc1ccc(CC(=O)Nc2cc(-c3cn4cccnc4n3)ccc2OC)cc1,"inconclusive: 2.82 µM [cytotoxic, partial curve]",
